# Assay results reported in the supplement of paper PMC6089552.
# Screen size: about 3,200 compounds; about 300 (9.4%) showed activity. The entries are a selection whose mix differs from that of the whole data set.
# Tested on: A673/TR/shEF
# Assay: cell viability (LOESS-normalised, relative to median of negative controls) (log2 ratio); higher = more viable cells (less compound effect), active = hit call of the paper (over 3 MAD below the median)
# Conditions: treatment time: 72 h
# Summary of the method: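 Viability of A673/TR/shEF Ewing sarcoma cells was determined by CellTiter-Glo luminescence. The cells, at 1,500 per well in 384-well plates, were grown with or without doxycycline from 24 h before compound addition to switch on EWS-FLI1 shRNA knockdown, then exposed for three days to library compounds at two or more concentrations or to DMSO controls. Signals were LOESS-corrected plate by plate, normalised to the negative-control median and log2-transformed.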
# [1] = 0.25 µM, library screen: screen2, EWS-FLI1 expression: high (no doxycycline)
# [2] = 0.25 µM, library screen: screen2, EWS-FLI1 expression: low (doxycycline-induced shRNA knockdown)
# [3] = 2.5 µM, library screen: screen2, EWS-FLI1 expression: high (no doxycycline)
# [4] = 2.5 µM, library screen: screen2, EWS-FLI1 expression: low (doxycycline-induced shRNA knockdown)
# [5] = 0.25 µM, library screen: screen1, EWS-FLI1 expression: high (no doxycycline)
# [6] = 0.25 µM, library screen: screen1, EWS-FLI1 expression: low (doxycycline-induced shRNA knockdown)
# [7] = 2.5 µM, library screen: screen1, EWS-FLI1 expression: high (no doxycycline)
# [8] = 2.5 µM, library screen: screen1, EWS-FLI1 expression: low (doxycycline-induced shRNA knockdown)
smiles,measurement,setting,value
CCn1c(=O)[nH]c2cc(Cl)c(Cl)cc21,cell viability (log2),[1],inactive: 0.155
same,cell viability (log2),[2],inactive: 0.0458
same,cell viability (log2),[3],inactive: 0.183
same,cell viability (log2),[4],inactive: 0.0928
C[C@H](CCC(=O)O)[C@H]1CC[C@H]2[C@@H]3[C@@H](O)C[C@@H]4C[C@H](O)CC[C@]4(C)[C@H]3CC[C@]12C,cell viability (log2),"0.103 µM, library screen: screen3, EWS-FLI1 expression: high (no doxycycline)",inactive: 0.148
same,cell viability (log2),"0.103 µM, library screen: screen3, EWS-FLI1 expression: low (doxycycline-induced shRNA knockdown)",inactive: 0.0907
same,cell viability (log2),[5],inactive: 0.129
same,cell viability (log2),[6],inactive: 0.102
same,cell viability (log2),"0.308 µM, library screen: screen3, EWS-FLI1 expression: high (no doxycycline)",inactive: 0.121
same,cell viability (log2),"0.308 µM, library screen: screen3, EWS-FLI1 expression: low (doxycycline-induced shRNA knockdown)",inactive: 0.0979
same,cell viability (log2),"0.926 µM, library screen: screen3, EWS-FLI1 expression: high (no doxycycline)",inactive: 0.0576
same,cell viability (log2),"0.926 µM, library screen: screen3, EWS-FLI1 expression: low (doxycycline-induced shRNA knockdown)",inactive: 0.0826
same,cell viability (log2),[7],inactive: 0.151
same,cell viability (log2),[8],inactive: 0.105
same,cell viability (log2),"2.8 µM, library screen: screen3, EWS-FLI1 expression: high (no doxycycline)",inactive: 0.0823
same,cell viability (log2),"2.8 µM, library screen: screen3, EWS-FLI1 expression: low (doxycycline-induced shRNA knockdown)",inactive: 0.0649
same,cell viability (log2),"8.3 µM, library screen: screen3, EWS-FLI1 expression: high (no doxycycline)",inactive: 0.0654
same,cell viability (log2),"8.3 µM, library screen: screen3, EWS-FLI1 expression: low (doxycycline-induced shRNA knockdown)",inactive: 0.0967
same,cell viability (log2),"25 µM, library screen: screen3, EWS-FLI1 expression: high (no doxycycline)",inactive: 0.0615
same,cell viability (log2),"25 µM, library screen: screen3, EWS-FLI1 expression: low (doxycycline-induced shRNA knockdown)",inactive: 0.137
COC(=O)c1cc(OC)c(=O)c2c(OC)c(OC)ccc2c1,cell viability (log2),[5],active: -0.0869
CC(=O)OCCC(C)CCC=C(C)C (stereo unspecified),cell viability (log2),[5],inactive: 0.082
same,cell viability (log2),[6],inactive: -0.0096
same,cell viability (log2),[7],inactive: 0.0689
same,cell viability (log2),[8],inactive: 0.105
CC(=O)O[C@@H]1CC[C@@]2(C)[C@H](CC[C@@H]3[C@@H]2C[C@H](OC(C)=O)[C@]2(C)[C@@H](C(C)=O)CC[C@@H]32)C1,cell viability (log2),[5],inactive: 0.135
same,cell viability (log2),[6],inactive: 0.117
same,cell viability (log2),[7],inactive: 0.0696
same,cell viability (log2),[8],inactive: 0.102
N[C@@H](CS(=O)O)C(=O)O,cell viability (log2),[1],inactive: 0.258
same,cell viability (log2),[2],inactive: 0.0997
same,cell viability (log2),[3],inactive: 0.124
same,cell viability (log2),[4],inactive: 0.0688
N#Cc1cc2nc(O)c(O)nc2cc1[N+](=O)[O-],cell viability (log2),[1],inactive: 0.155
same,cell viability (log2),[2],inactive: 0.114
same,cell viability (log2),[3],inactive: 0.184
same,cell viability (log2),[4],inactive: 0.11
CC(=O)NC(Cc1c[nH]c2ccccc12)C(=O)O (stereo unspecified),cell viability (log2),[5],inactive: 0.0224
same,cell viability (log2),[6],inactive: 0.127
same,cell viability (log2),[7],inactive: 0.0949
same,cell viability (log2),[8],inactive: 0.156
CN(C)C(N)=NCCC[C@H](N)C(=O)O,cell viability (log2),[1],inactive: 0.185
same,cell viability (log2),[2],inactive: 0.151
same,cell viability (log2),[3],inactive: 0.186
same,cell viability (log2),[4],inactive: 0.199
C[C@@H](CN1CCC(Cc2ccccc2)CC1)[C@@H](O)c1ccc(O)cc1,cell viability (log2),[1],inactive: 0.1
same,cell viability (log2),[2],inactive: 0.0193
same,cell viability (log2),[3],inactive: 0.216
same,cell viability (log2),[4],inactive: 0.107
N[C@@H](Cc1cc(I)c(Oc2ccc(O)c(I)c2)c(I)c1)C(=O)O,cell viability (log2),[5],inactive: 0.0835
same,cell viability (log2),[6],inactive: 0.0286
same,cell viability (log2),[7],inactive: 0.137
same,cell viability (log2),[8],inactive: 0.123
Nc1c2ccccc2nc2ccccc12,cell viability (log2),[5],inactive: 0.0717
same,cell viability (log2),[6],inactive: 0.0455
same,cell viability (log2),[7],inactive: 0.156
same,cell viability (log2),[8],inactive: 0.158
CN1CCC(=C2c3ccccc3Sc3ccccc32)CC1,cell viability (log2),[5],inactive: 0.118
same,cell viability (log2),[6],inactive: 0.00102
same,cell viability (log2),[7],inactive: 0.16
same,cell viability (log2),[8],inactive: 0.11
CC(=O)O[C@H]1CC[C@@]2(C)C(=CC[C@H]3[C@@H]4CC[C@H]([C@H](C)CCCC(C)C)[C@@]4(C)CC[C@@H]32)C1,cell viability (log2),[5],inactive: 0.0694
same,cell viability (log2),[6],inactive: 0.0487
same,cell viability (log2),[7],inactive: 0.14
same,cell viability (log2),[8],inactive: 0.0189
Cc1ccc(=O)n(-c2ccccc2)c1,cell viability (log2),[1],inactive: 0.174
same,cell viability (log2),[2],inactive: 0.0832
same,cell viability (log2),[3],inactive: 0.119
same,cell viability (log2),[4],inactive: 0.0238
NO,cell viability (log2),[1],inactive: 0.0663
same,cell viability (log2),[2],inactive: 0.0637
same,cell viability (log2),[3],inactive: 0.0896
same,cell viability (log2),[4],inactive: 0.0443
Nc1nc(Cl)nc2c1ncn2[C@@H]1O[C@H](CO)[C@@H](O)[C@H]1O,cell viability (log2),[1],inactive: 0.323
same,cell viability (log2),[2],inactive: 0.0766
same,cell viability (log2),[3],inactive: 0.0971
same,cell viability (log2),[4],inactive: -0.0176
O=c1[nH]c2ccccc2n1CCCN1CCN(C(c2ccccc2)c2ccccc2)CC1,cell viability (log2),[1],inactive: 0.129
same,cell viability (log2),[2],inactive: 0.089
same,cell viability (log2),[3],inactive: 0.0833
same,cell viability (log2),[4],inactive: 0.142
